In paper PMC3907300:
No constants are given. Whether binding was seen depends on the method and setting. Some entries that bind do so weakly or less than the wild type. Blank lines part the entries; values can stand above or below the binder they belong to.

Assays:
[1] = biological target: T1, zebrafish C-terminal portion of Wdr43 (357-650aa) (zebrafish) (UniProt Q8JHG6); assay: two-hybrid; zebrafish proteins: Wdr43 constructs in bait vector pGABT7, Utp4 and Utp15 in prey vector pGADT7; growth in triple dropout medium after 3-5 days at 30°C; tested in both bait and prey constructs
T1 sequence: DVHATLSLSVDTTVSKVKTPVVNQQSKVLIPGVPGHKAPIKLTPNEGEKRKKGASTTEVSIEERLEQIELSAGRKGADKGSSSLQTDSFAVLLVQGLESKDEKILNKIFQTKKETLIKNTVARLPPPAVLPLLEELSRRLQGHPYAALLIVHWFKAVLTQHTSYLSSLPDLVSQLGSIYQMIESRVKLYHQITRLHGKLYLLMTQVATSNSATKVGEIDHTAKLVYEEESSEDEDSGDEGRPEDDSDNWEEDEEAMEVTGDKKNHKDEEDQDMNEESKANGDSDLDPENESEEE

[2] = biological target: T2, zebrafish full length Wdr43 (zebrafish) (UniProt Q8JHG6); assay: as above
T2 sequence: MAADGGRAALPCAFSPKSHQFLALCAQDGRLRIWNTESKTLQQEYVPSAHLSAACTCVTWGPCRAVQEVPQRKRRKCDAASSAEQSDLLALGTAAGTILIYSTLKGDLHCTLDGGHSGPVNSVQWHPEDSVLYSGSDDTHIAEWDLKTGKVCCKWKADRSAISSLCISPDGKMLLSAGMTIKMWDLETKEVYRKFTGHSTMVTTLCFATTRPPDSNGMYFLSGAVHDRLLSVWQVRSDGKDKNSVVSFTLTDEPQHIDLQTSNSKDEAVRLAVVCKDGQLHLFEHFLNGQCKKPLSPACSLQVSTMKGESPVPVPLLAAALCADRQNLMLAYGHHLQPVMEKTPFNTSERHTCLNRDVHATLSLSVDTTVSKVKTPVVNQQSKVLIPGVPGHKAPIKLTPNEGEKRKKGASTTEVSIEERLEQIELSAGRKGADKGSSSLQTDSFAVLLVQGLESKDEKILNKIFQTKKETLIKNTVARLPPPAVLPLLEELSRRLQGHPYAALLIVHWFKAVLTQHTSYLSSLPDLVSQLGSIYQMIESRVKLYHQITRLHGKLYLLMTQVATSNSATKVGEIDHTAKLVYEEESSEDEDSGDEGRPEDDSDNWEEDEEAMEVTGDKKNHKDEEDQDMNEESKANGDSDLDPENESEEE

[3] = biological target: T3, zebrafish truncated fan mutant Wdr43 (1-356aa) (zebrafish) (UniProt Q8JHG6); assay: as above
T3 sequence: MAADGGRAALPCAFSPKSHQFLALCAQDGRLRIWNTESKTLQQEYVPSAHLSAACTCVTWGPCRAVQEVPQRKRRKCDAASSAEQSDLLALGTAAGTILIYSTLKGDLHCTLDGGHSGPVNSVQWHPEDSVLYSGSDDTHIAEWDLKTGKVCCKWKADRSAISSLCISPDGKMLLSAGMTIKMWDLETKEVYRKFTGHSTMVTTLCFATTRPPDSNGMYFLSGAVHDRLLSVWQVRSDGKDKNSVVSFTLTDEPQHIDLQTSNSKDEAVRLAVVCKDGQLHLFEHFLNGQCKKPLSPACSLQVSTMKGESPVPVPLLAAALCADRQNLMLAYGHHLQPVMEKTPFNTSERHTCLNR

yeast Utp15 (yeast) = biological target: T4, yeast Utp15 (yeast) (UniProt Q04305); assay: two-hybrid; yeast proteins: Utp5 constructs in prey vector pGADT7, other t-Utp proteins in bait vector; AH109 yeast strain; growth on AHTL dropout medium after 3-5 days at 30°C
T4 sequence: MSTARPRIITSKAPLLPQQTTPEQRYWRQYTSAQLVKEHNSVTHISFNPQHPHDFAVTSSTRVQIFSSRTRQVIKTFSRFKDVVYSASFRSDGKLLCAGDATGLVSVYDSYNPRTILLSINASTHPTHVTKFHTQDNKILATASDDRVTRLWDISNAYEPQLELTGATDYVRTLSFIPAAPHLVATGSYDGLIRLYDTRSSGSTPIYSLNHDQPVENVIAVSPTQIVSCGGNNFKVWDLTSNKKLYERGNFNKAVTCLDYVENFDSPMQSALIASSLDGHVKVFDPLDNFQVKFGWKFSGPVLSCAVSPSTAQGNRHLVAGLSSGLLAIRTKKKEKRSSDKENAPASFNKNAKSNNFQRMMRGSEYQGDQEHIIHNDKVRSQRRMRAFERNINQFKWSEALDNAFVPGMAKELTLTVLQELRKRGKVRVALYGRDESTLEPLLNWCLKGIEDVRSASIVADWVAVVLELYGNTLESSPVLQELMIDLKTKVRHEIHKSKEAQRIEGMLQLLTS

yeast Utp4 (yeast) = biological target: T5, yeast Utp4 (yeast) (UniProt Q06679); assay: as above
T5 sequence: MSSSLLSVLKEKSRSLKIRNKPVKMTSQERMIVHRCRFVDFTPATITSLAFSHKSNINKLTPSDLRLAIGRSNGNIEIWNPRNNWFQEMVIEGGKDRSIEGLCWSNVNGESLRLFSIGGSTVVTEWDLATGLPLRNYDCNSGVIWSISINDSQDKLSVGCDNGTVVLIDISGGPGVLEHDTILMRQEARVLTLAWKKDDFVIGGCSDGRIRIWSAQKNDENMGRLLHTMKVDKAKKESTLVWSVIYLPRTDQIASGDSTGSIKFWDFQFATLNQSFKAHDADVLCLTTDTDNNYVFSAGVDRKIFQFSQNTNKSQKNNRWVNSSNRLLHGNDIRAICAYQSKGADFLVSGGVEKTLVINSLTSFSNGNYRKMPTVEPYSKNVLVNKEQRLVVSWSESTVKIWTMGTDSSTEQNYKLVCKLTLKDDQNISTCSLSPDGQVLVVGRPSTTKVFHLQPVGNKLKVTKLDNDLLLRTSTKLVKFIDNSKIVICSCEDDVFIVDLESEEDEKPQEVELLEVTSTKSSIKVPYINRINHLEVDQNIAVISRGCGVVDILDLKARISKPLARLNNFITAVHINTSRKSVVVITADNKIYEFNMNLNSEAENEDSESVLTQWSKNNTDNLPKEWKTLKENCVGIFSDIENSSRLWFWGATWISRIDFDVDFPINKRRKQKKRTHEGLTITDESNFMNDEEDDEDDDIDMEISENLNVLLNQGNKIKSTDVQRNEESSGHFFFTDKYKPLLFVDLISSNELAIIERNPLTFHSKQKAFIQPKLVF

- binding [1]: binds
- binding [2]: binds
- binding [3]: no binding
B1: zebrafish Utp4 (protein, UniProt Q6P125 1-685)
chain: MGEFKVHRVRFFEYVPSGIRALAFNQHNERMAAAKMNGSVEIFHCSDRFFQEKIIPGREQAGIEGLTWVGERLFSAGLNGVITEYDLTNQRVKYTIDAYGGPIWAITGNQQGTHLAVGCEDGTVKLFEVTEDKIQFERNLDRQKGRIISLSWHPSGSKIAAGMMDMIQVFNVETGHSKHRILVDRGYGTSRGKECVVWSVVYLSDGTIISGDSVGMVKMWRDDTGTLIKSHNITKSDVLSLSVSQNEDSIVAGTSEGFVVQFQFLSMVLENNEKDWVRTRTFRNHTHDVRAVAEITTAVVSGGMDTQLVVRPLLDKHEVKSSASKLRKIQFPHRSLVSCARKAGTLLFQYPGHLELWRLGESEGEGIPGSSLLLKRKPEKLLHLKVKGEDHIRCSAVSPCGEWIAYSTTSSLRLYKLHCDSNNVSITKISKLPKVLGSASQLCFSSDSTHLFSASTQSSVHMVSLSQPECKFVATFKTKSGSHQAIHLLAASEDGKWLASANIDNEVHIYNLQTRKAHCTVPIYSSAVSAMAIHPTTNCLFMVHADQQIFEFSIEQKEYTDWSRLVQRQGLHRIWLERDTPCLNVTFNQKNPSHVILHDMYMFCIIDQSQPLPDSKSQFLNQLTLRSLPEEQRKSYSHAFKVCKTFKELLCVDVMGDQSLVVVERPLEDITAQLPAPIKQKKFAT

- binding (yeast Utp15 (yeast)): binds
- binding (yeast Utp4 (yeast)): binds
B2: yeast Utp5 C-terminal (344-643aa) (domain or fragment, UniProt Q04177 344-643)
chain: DLHGKDLASATNYVEGNARVTSGDNFKHVDDAIKSWERELTSLEQEQAKPPQANELLTETFGDKLESSTVARISGKKTNLKGSNLKTATTTGTVTVILSQALQSNDHSLLETVLNNRDERVIRDTIFRLKPALAVILLERLAERIARQTHRQGPLNVWVKWCLIIHGGYLVSIPNLMSTLSSLHSTLKRRSDLLPRLLALDARLDCTINKFKTLNYEAGDIHSSEPVVEEDEDDVEYNEELDDAGLIEDGEESYGSEEEEEGDSDNEEEQKHTSSKQDGRLETEQSDGEEEAGYSDVEME

- binding [1]: binds
- binding [2]: binds
- binding [3]: no binding
B3: zebrafish Utp15 (protein, UniProt Q7ZW33 1-517)
chain: MASFKPTKVLSYPKLGEKVTEETLYWKNYKPPVQIKEFGAVSKIDFSPLPPHNYAVTASTRVHIYGLHSQEPIRNFTRFHDTAYGGSFRGDGKLLVAGSEEGLIRLFDIGGRVSLRQFKGHSKAVHATSFLSDGFRVLSGSDDLTCRVWDVASAVELSSITEHTDYIRAIAPSKLNPDVFVTGSYDHTVKMFDVRSGNSVMTMQHGQPVECVLLYPSEALLVSTGGRYVKVWDLLKGGQQLVSLKNHHKTVTCACLSSSNKLLTASLDRHVKVYNSSYKVVHNFDCASSILSLAVAPDDEAVAVGMTNGVLSIRHRKHKEEKEALTGRRKRGPSYRFFVKGKNFVPRQDDFLVSKPVRQHLQKYDKQLKRFEVSKALDTALETWTRTTKPEVTVAVIMELNRRGTLKNALAGRDEVSLTKILNFLLKHITDPRFSRPLLTVGDIVLDLYQQVIPQSPVVERLLQRLYEILGREAELQQELLQVLGILDTLFASLMPRKEVASFGAAAAAQESQLQAA

- binding (yeast Utp15 (yeast)): no binding
- binding (yeast Utp4 (yeast)): no binding
B4: yeast Utp5 N-terminal (1-343aa) (domain or fragment, UniProt Q04177 1-343)
chain: MDSPVLQSAYDPSGQYLCYVTVALDKQRVGVQPTQRATSSGVDTVWNENFLYLEDSKLKVTCLKWVNLASSDTVAIILGMNNGEIWLYSVLANEVTYKFTTGNSYEIKDIDLMGNQLWCIDSSDAFYQFDLLQFKLLQHFRINNCVQLNKLTIVPAGDSVAQLLVASHSISLIDIEEKKVVMTFPGHVSPVSTLQVITNEFFISGAEGDRFLNVYDIHSGMTKCVLVAESDIKELSHSGQADSIAVTTEDGSLEIFVDPLVSSSTKKRGNKSKKSSKKIQIVSKDGRKVPIYNAFINKDLLNVSWLQNATMPYFKNLQWREIPNEYTVEISLNWNNKNKSADR

- binding (yeast Utp15 (yeast)): binds
- binding (yeast Utp4 (yeast)): binds
B5: yeast full length Utp5 (protein, UniProt Q04177 1-643)
chain: MDSPVLQSAYDPSGQYLCYVTVALDKQRVGVQPTQRATSSGVDTVWNENFLYLEDSKLKVTCLKWVNLASSDTVAIILGMNNGEIWLYSVLANEVTYKFTTGNSYEIKDIDLMGNQLWCIDSSDAFYQFDLLQFKLLQHFRINNCVQLNKLTIVPAGDSVAQLLVASHSISLIDIEEKKVVMTFPGHVSPVSTLQVITNEFFISGAEGDRFLNVYDIHSGMTKCVLVAESDIKELSHSGQADSIAVTTEDGSLEIFVDPLVSSSTKKRGNKSKKSSKKIQIVSKDGRKVPIYNAFINKDLLNVSWLQNATMPYFKNLQWREIPNEYTVEISLNWNNKNKSADRDLHGKDLASATNYVEGNARVTSGDNFKHVDDAIKSWERELTSLEQEQAKPPQANELLTETFGDKLESSTVARISGKKTNLKGSNLKTATTTGTVTVILSQALQSNDHSLLETVLNNRDERVIRDTIFRLKPALAVILLERLAERIARQTHRQGPLNVWVKWCLIIHGGYLVSIPNLMSTLSSLHSTLKRRSDLLPRLLALDARLDCTINKFKTLNYEAGDIHSSEPVVEEDEDDVEYNEELDDAGLIEDGEESYGSEEEEEGDSDNEEEQKHTSSKQDGRLETEQSDGEEEAGYSDVEME
